The list shows a part of the results.
B1: chr4:76733432:76733433:+_ENSG00000138768_ENST00000264904|hu_mus|FALSE|FALSE (ssRNA)
RNA: GGGAGUUCUACAGUCCGACGAUCUGCUAACAGCACCAAAAGGUCAUCUUGUUCUUUCUUAGAAUCCGUAACUUCCAAGUCCAGCUUGUCUUUCUCGGUUUGCAGGAUGGCGAUGGUGCUAUUGGAUGAGUCCAGCUGCUUUUGCAACAGAGGAUUGAGCAUCA
B2: chr4:57314706:57314707:+_ENSG00000128050_ENST00000264221|hu_mus|hu_hu_hu_mus_True|38_78 (ssRNA)
RNA: GGGAGUUCUACAGUCCGACGAUCCAGAAUUUCAAAAAUAGCUUGUGUGGCAUGACUCAUGAUAUCCACUUCAGUCUGCCCUAUAACAAGGCCAGCAAAGCAAAAUUUUGCAGCAAUGAGUUGCUCCUCAGACCACUGUGGAUCCAACAGAGGAUUGAGCAUCA
B3: chr3:9412954:9412955:+_ENSG00000134077_ENST00000452837|hu_mus|hu_hu_hu_mus_False|28_48 (ssRNA)
RNA: GGGAGUUCUACAGUCCGACGAUCGGUUGAUAUCUCUUCUUUGAUGGCUGGAUUUUCAUAAUAGUCCAAGAUAUGUGAAUCUGAAGUAUGGCUAGUGUGCUUUUUCUUAACAUUUCUCUCAUCUGCUUUGUCUCCUUGUCCACACAACAGAGGAUUGAGCAUCA
B4: chr11:69638232:69638233:-_ENSMUSG00000051790_ENSMUST00000056484|mus_mus|FALSE|FALSE (ssRNA)
RNA: GGGAGUUCUACAGUCCGACGAUCUCUCCAGGGAGUUGGACGGGGAGGAGAAGACGAAGGCAUGGGAUACAAAUCCCCGCAGAAAUUCUUGGAGGAGGCAAACAUGUGUCCAGGGCGGCAAAACAAACAAACAAACAAACAACCCAACAGAGGAUUGAGCAUCA
B5: chr3:150289932:150289933:+_ENSG00000144895_ENST00000460851|hu_hu|hu_hu_hu_mus_False|18_58 (ssRNA)
RNA: GGGAGUUCUACAGUCCGACGAUCCUUGUAGUUUUUAACAUCCCAUACUUCCAUUUGUCCUCGAAGAUUUCCAAAUCCAGCUAAUACUAAUAUAUGUCCAUGAGGGCUAUAGAAGGCUGCAUUACGAGGACCAGUCCCAAAGUCCAACAGAGGAUUGAGCAUCA
B6: chr14:78183846:78183847:+_ENSG00000119705_ENST00000557342|hu_hu|hu_hu_hu_mus_False|1_48 (ssRNA)
RNA: GGGAGUUCUACAGUCCGACGAUCUCUCAGAAAUCUUUCUUCAUCAGAUGUUUGAGCUCCGUGCAAAGCCUUUGCUCUUUGAGCUUGAACCUGGACCUAUGGGAGGGAAAGCACUGUCAGAAAAGGUAAUUUUUUUUUCCGAAGCAACAGAGGAUUGAGCAUCA
B7: chr8:38205342:38205343:-_ENSG00000147548_ENST00000316985|hu_mus|motif|central (ssRNA)
RNA: GGGAGUUCUACAGUCCGACGAUCCAGAAUUUCAUGUGGUCUUGUGUUUGGAAUUUCUGAAUGGUAAUAGUCAGUAGGGCGGAAGUUUCUAACUGCACCAAAACCGUUGGCUGACCCAUUGGGAUACUGAUUAUAUGGCGGGUACAACAGAGGAUUGAGCAUCA
B8: chr1:174983830:174983831:-_ENSG00000120333_ENST00000367677|hu_mus|motif|central (ssRNA)
RNA: GGGAGUUCUACAGUCCGACGAUCUUCUGAAAUGGUUUUACCAUAUCGCUCGCUGGACUCCAGAAAGUAGCCCGUGGUCAGCGGAGUGGCGGAAGACAAUGCGACUAAGUCUCCAGCGACGCUUAACACCACGUGGGCGAGAUGCAACAGAGGAUUGAGCAUCA
B9: chr10:33190432:33190433:-_ENSG00000150093_ENST00000302278|hu_mus|hu_hu_hu_mus_True|58_58 (ssRNA)
RNA: GGGAGUUCUACAGUCCGACGAUCUACAUUUUCCAAACCUGCAUGUGAAUAAAACCCUGGCCACAGAGCCCCAAAACUACCUAACUGUGACUAAGAUGCUGCUGCUGUGAGCUUGGUGUUGCAAAAUCCGCCUGAGUAGGAUUCCAACAGAGGAUUGAGCAUCA
B10: chr17:56552419:56552420:-_ENSMUSG00000013236_ENSMUST00000086828|mus_mus|mus_mus_mus_hu_False|1_1 (ssRNA)
RNA: GGGAGUUCUACAGUCCGACGAUCAAAAAAUACACUAUUUAAAAAAAAUGAAAUGUCACGGGAUACAGUUACACUGAGAGUUUUAAAAGAAAGCUGGAUUCUGGUCCCAGCCCAGUGUCCCCAGGCUGCAGAGCGGGGCAGAGGCAACAGAGGAUUGAGCAUCA
B11: chr2:71279510:71279511:+_ENSMUSG00000027018_ENSMUST00000028408|mus_mus|FALSE|FALSE (ssRNA)
RNA: GGGAGUUCUACAGUCCGACGAUCUCAUAAACUCUAGACAGUAUUUUAAAAUAUACAAUCUCUCAAAAGGAAAUAUUCCACUAAGGAGAACAUAGAUAACUUUAGGGUCAUCAGAGGUUCACAGCACGAUGCACAGAAAUCUGCCAACAGAGGAUUGAGCAUCA
B12: chr2:148695906:148695907:-_ENSG00000115947_ENST00000542387|hu_mus|motif|central (ssRNA)
RNA: GGGAGUUCUACAGUCCGACGAUCCACCAUUUGAAAAUUAAAGGGCUCCUCUUCAUAUAUGUCAUUUAAAUGUUUCAUUGCGGUUAUAAGACAGAUUUCCAAGACUGACAGACCAUGUACAAUAUUCGCCUUAGAAUCCAAGCUCAACAGAGGAUUGAGCAUCA
B13: chr17:61432403:61432404:+_ENSG00000170921_ENST00000424789|hu_hu|FALSE|FALSE (ssRNA)
RNA: GGGAGUUCUACAGUCCGACGAUCCUUCAUAUUGCACUGGAGUAAAUAAACCUCUGAGAGCGAAACAGGAACUACUUUGUAGCUAGAGCUCUUUAACACUAGAUAGCCUUUCUCUAUGAGGUCAAAUGUAAGUUUCAGAUAUAGCAACAGAGGAUUGAGCAUCA
B14: chr10:24632488:24632489:+_ENSMUSG00000019984_ENSMUST00000092646|mus_hu|motif|central (ssRNA)
RNA: GGGAGUUCUACAGUCCGACGAUCUGCUGGAGACCCACUGUUCAUGGCUUGUGGAGGCACUGCAGCUGGCUCCAUCUUGCGGAUGUGUGUGAUGAAUCGAAGACGAAGUUUUAAAGCUGGUUUUAAGUUACAGAUAAUCUUCUCCAACAGAGGAUUGAGCAUCA

biological target: T1, UNK ZnF1-3 (human, UniProt Q9C0B0 31-174); test: nsRBNS (natural sequence RNA bind-n-seq); RBNS binding buffer (assumed for nsRBNS): 25 mM Tris pH 7.5, 150 mM KCl, 3 mM MgCl2, 0.01% Triton X-100, 500 ug/ml BSA, 20 U/ml SUPERase-In, 4 C; UNK is unkempt and MSI1 is Musashi-1; names of the RNAs are library labels; protein concentration not given here; high values mean tight binding
T1 sequence: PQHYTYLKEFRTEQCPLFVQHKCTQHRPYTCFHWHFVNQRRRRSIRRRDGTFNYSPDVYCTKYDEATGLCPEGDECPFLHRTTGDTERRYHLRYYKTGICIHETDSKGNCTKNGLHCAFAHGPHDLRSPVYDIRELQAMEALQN

Binder	binding signal
B1	0.313 enrichment R
B2	1.04 enrichment R
B3	0.329 enrichment R
B4	2.33 enrichment R
B5	1.35 enrichment R
B6	1.18 enrichment R
B7	1.27 enrichment R
B8	0.83 enrichment R
B9	1.32 enrichment R
B10	2.1 enrichment R
B11	0.64 enrichment R
B12	1.94 enrichment R
B13	0.904 enrichment R
B14	0.876 enrichment R
